In PubChem BioAssay AID485364 (National Center for Advancing Translational Sciences (NCATS), 2010):
About 11,000 (3.1%) of roughly 360,000 compounds were called active. The inconclusive results got no clear call from the source; some entries with a clear call stand among them for comparison. Calls follow the shape of the dose curve; as a rule, active = well fitted inhibition curve with a large enough effect; inconclusive = small, poorly fitted or top-dose-only effect; inactive = no such curve, though single readings can be large or run the other way. No potency is given beside an inconclusive call; the fits are too rough.

biological target: Schistosoma mansoni thioredoxin glutathione reductase (TGR) (UniProt Q962Y6); assay: qHTS Assay for the Inhibitors of Schistosoma Mansoni Peroxiredoxins; details: purified TGR, DTNB reduction, TNB absorbance 405 nm; activity change, negative = inhibition: at 114 µM (top of the series) unless noted; also: nearly all actives have a fitted effect of over 60% in size
Method in brief: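 First, TGR (20 nM dispensed) and NADPH were mixed with compound. Second, a 15 min room-temperature incubation followed. Third, further NADPH and then DTNB were added to start the reaction. Finally, TNB absorbance was monitored kinetically.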
% is scaled to controls: 0 for no effect and ±100 for the full control effect; potency is read from the fitted curve at half-maximal effect; tags tell the direction and shape of the fitted curve.

Compound	activity change, negative = inhibition	Potency
CCOC(=O)Cc1csc(NC(=O)CN2CCN(c3ccccc3)CC2)n1	inactive: -15.8%	
Cc1cc(C)cc(OCC(=O)N2N=C(C(F)(F)F)CC2(O)C(C)(C)C)c1 (configuration not stated)		active: 50.1 µM
O=C(c1cc2ccccc2oc1=O)N(Cc1ccco1)CC1CCCO1 (configuration not stated)		inconclusive [inhibitor, partial curve]
CCn1c(=O)cc(SCC(=O)NCc2ccc(C)o2)c2ccccc21	inactive: 0%	
Cc1[nH]c2ccccc2c1C(=O)CN1CCCC1		inconclusive [inhibitor, full curve]
CCOC(=O)c1c[nH][nH]c1=O	inactive: -0.848%	
COc1cc(C2Nc3ccc4ccccc4c3C3=C2C(=O)CC(C)(C)C3)ccc1OC(C)C(=O)O (configuration not stated)		inconclusive [inhibitor, partial curve]
Oc1ccc2c(ccc3[nH]cnc32)c1	inactive: -3.86%	
Cc1ccccc1-c1cc(C(=O)Nc2sc(C(=O)OC(C)C)c(C)c2C#N)c2ccccc2n1	inactive: 3.85%	
Cc1ccccc1NC(=O)C1CC(=O)n2ncnc2N1 (configuration not stated)		active: 35.5 µM
S=c1sc2c(N3CCN(Cc4ccccc4)CC3)ncnc2n1-c1ccccc1		inconclusive [inhibitor, partial curve]
N#Cc1c2c(c(NCc3ccco3)n3c1nc1ccccc13)CCC2		inconclusive [inhibitor, partial curve]
O=c1cc(-c2ccccc2)[nH]n1-c1nc2ccccc2s1	inactive: -25.1%	
COc1ccc(N2CCN(Cc3nc4sc(C)c(C)c4c(=O)[nH]3)CC2)cc1	inactive: 0.774%	
CCn1c(=O)n(CC2CCC(C(=O)NC(C)C)CC2)c(=O)c2sccc21 (configuration not stated)		inconclusive [inhibitor, single point]
Cc1cccc(NC(=S)NC(=O)c2ccc(Br)o2)c1C		inconclusive [inhibitor, full curve]
COc1cc(-c2cc(=O)c3ccccc3o2)ccc1O	inactive: -3.84%	
C/C(=N\Nc1ccccc1[N+](=O)[O-])c1ccccc1O		inconclusive [inhibitor, partial curve, poor fit]
CC1CN(C(NC(=O)c2ccccc2)C(Cl)(Cl)Cl)CC(C)O1 (configuration not stated)		active: 20 µM
Cc1cccc(NC(=O)Nc2cccnc2)c1C		inconclusive [inhibitor, full curve, poor fit]
COC(=O)c1[nH]c2ccc(C)cc2c1NC(=O)C(C)N1CCN(C2CCCCC2)CC1 (configuration not stated)	inactive: 2.43%	
C=CCNC(=O)O/N=C/c1csc([N+](=O)[O-])c1		inconclusive [inhibitor, partial curve]
